Measurements published in the RNAGym collection of RNA variant scans (doi:10.1101/gad.245936.114).
Variants at the floor of the assay are shown more often than the library holds them.

B1: tRNA (parent)
chain: CUCUCGGUAGCCAAGUUGGUUUAAGGCGCAAGACUUUAAUUUAUCACUACGAAAUCUUGAGAUCGGGCGUUCGACUCGCCCCCGGGAGAUUUUUUCCUCGAGCAA

Variants of: B1
Experiment: nonsense suppression (GFP-seq) (ratio to wild type); higher = more function; SUP4oc tRNA, yeast GFP reporter sort-seq
Outline: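 Each variant's nonsense suppression (GFPSEQ) is a cell-share-weighted bin median GFP/RFP relative to the unmutated parent tRNA. Yeast with genome-integrated tRNA variants from a ~3% random-mutation library, a galactose-driven GFP ochre reporter and RFP were grown in raffinose/galactose medium with 80 mg/L adenine, then sorted into GFP/RFP bins for Illumina sequencing. Variants needed ≥100 reads and ≥30 cells.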

Nonsense suppression, ≤ 0.026:
CUCUCGGUAGCCAAGUUGGUUUAAGGCGCAAGACUUUAAUUUAUCACUACGAAAUCCUGAGAUCGGGCGUUCGACUAGCCCCCGGGAGUUUUUUUCCUCGAGCAA [U57C C77A A89U]
CUCUCGGUAGCCAAGUUGGUUUAAGGCGCAAGACUUUAAUUUAUCACUACGAAAUCCUGAGAUCGGGCGUUCGACUCGCCCACGGGAGAUUUUUUCCUCGAGCAA [U57C C82A]
CUCUCGGUAGCCAAGUUGGUUUAAGGCGCAAGACUUUAAUUUAUCACUACGAAAUCCUGAGAUCGGGCGUUCGACUCGCCCCAGGGAGAUUUUUUCCUCGAGCAA [U57C C83A]
CUCUCGGUAGCCAAGUUGGUUUAAGGCGCAAGACUUUAAUUUAUCACUACGAAAUCCUUAGAUCGGGCGUUCGACUCGCCCCCGGGAGAUUUUUUCCUCGAGCAA [U57C G59U]
CUCUCGGUAGCCAAGUUGGUUUAAGGCGCAAGACUUUAAUUUAUCACUACGAAAUCCUGAGAUCGAGCGUUCGACUCGCCCCCGGGAGAUUUUUUCCUCGAGCAA [U57C G66A]
CUCUCGGUAGCCAAGUUGGUUUAAGGCGCAAGACUUUAAUUUAUCACUACGAAAUCCUGAGAUCGUGCGUUCGACUCGCCCCCGGGAGAUUUUUUCCUCGAGCAA [U57C G66U]
CUCUCGGUAGCCAAGUUGGUUUAAGGCGCAAGACUUUAAUUUAUCACUACGAAAUCCUGAGAUCGUGCGUUCGACUCGCCACCGGGAGAUUUUUUCCUCGAGCAA [U57C G66U C81A]
CUCUCGGUAGCCAAGUUGGUUUAAGGCGCAAGACUUUAAUUUAUCACUACGAAAUCCUGAGAUCGGGCAUUCGACUCGCCCCCGGGAGAUUUUUUCCUCGAGCAA [U57C G69A]
CUCUCGGUAGCCAAGUUGGUUUAAGGCGCAAGACUUUAAUUUAUCACUACGAAAUCCUGAGAUCGGGCAUUCGGCUCGCACCCGGGAGAUUUUUUCCUCGAGCAA [U57C G69A A74G C80A]
CUCUCGGUAGCCAAGUUGGUUUAAGGCGCAAGACUUUAAUUUAUCACUACGAAAUCCUGAGAUCGGGCGUUCGACUCCCCCCCGGGAGAUUUUUUCCUCGAGCAA [U57C G78C]
CUCUCGGUAGCCAAGUUGGUUUAAGGCGCAAGACUUUAAUUUAUCACUACGAAAUCCUGAGAUCGGGCGUUCGACUCGCCCCCGGGAUAUUUUUUCCUCGAGCAA [U57C G88U]
CUCUCGGUAGCCAAGUUGGUUUAAGGCGCAAGACUUUAAUUUAUCACUACGAAAUCCAGAGCUCGGGCGUUCGACUCGCCCCCGGGAGAUUUUUUCCUCGAGCAA [U57C U58A A62C]
CUCUCGGUAGCCAAGUUGGUUUAAGGCGCAAGACUUUAAUUUAUCACUACGAAAUCCCGAGAUCGGGCGUUCGACUCGCCCCCGGGAGAUUUUUUCCUCGAGCAA [U57C U58C]
CUCUCGGUAGCCAAGUUGGUUUAAGGCGCAAGACUUUAAUUUAUCACUACGAAAUCCCGAGAUCGGGCGUUCGACUCGCCACCGGCAGAUUUUUUCCUCGAGCAA [U57C U58C C81A G86C]
CUCUCGGUAGCCAAGUUGGUUUAAGGCGCAAGACUUUAAUUUAUCACUACGAAAUCCGGAGAUCGGGCGUUCGACUCGGCCCCGGGAGAUUUUUUCCUCGAGCAA [U57C U58G C79G]
CUCUCGGUAGCCAAGUUGGUUUAAGGCGCAAGACUUUAAUUUAUCACUACGAAAUCCUGAGACGUGGCGUUCGACUCGCCCCCGGGAGAUUUUUUCCUCGAGCAA [U57C U63C C64G G65U]
CUCUCGGUAGCCAAGUUGGUUUAAGGCGCAAGACUUUAAUUUAUCACUACGAAAUCCUGAGACCGGGCGUUCGACUCGCCCCAGGGAGAUUUUUUCCUCGAGCAA [U57C U63C C83A]
CUCUCGGUAGCCAAGUUGGUUUAAGGCGCAAGACUUUAAUUUAUCACUACGAAAUCCUGAGACCGGGCGUUCGACACGCCCCCGGGAGAUUUUUUCCUCGAGCAA [U57C U63C U76A]
CUCUCGGUAGCCAAGUUGGUUUAAGGCGCAAGACUUUAAUUUAUCACUACGAAAUCCUGAGAUCGGGCGUACGACUUGCCGCCGGGAGAUUUUUUCCUCGAGCAA [U57C U71A C77U C81G]
CUCUCGGUAGCCAAGUUGGUUUAAGGCGCAAGACUUUAAUUUAUCACUACGAAAUCGUGCGAUCGGGCGUUCGACUCGCCCCCGGGAGAUUUUUUCCUCGAGCAA [U57G A60C]
CUCUCGGUAGCCAAGUUGGUUUAAGGCGCAAGACUUUAAUUUAUCACUACGAAAUCGUGAGAUCGGGCGUUCGUCUCGCCCCCGGGAGAUUUUUUCCUCGAGCAA [U57G A74U]
CUCUCGGUAGCCAAGUUGGUUUAAGGCGCAAGACUUUAAUUUAUCACUACGAAAUCGUGAGAUGGGGCGUUCGACUCGCCCCCGGGAGAUUUUUUCCUCGAGCAA [U57G C64G]
CUCUCGGUAGCCAAGUUGGUUUAAGGCGCAAGACUUUAAUUUAUCACUACGAAAUCGUGAGAUCGGGAGUUCGACGCGCCCCCGGGAGAUUUUUUCCUCGAGCAA [U57G C68A U76G]
CUCUCGGUAGCCAAGUUGGUUUAAGGCGCAAGACUUUAAUUUAUCACUACGAAAUCGUGAGAUCGGGCGUUGGACUUGCCCCCGGGACAUUUUUUCCUCGAGCAA [U57G C72G C77U G88C]
CUCUCGGUAGCCAAGUUGGUUUAAGGCGCAAGACUUUAAUUUAUCACUACGAAAUCGUGAGAUCGGGCGUUCGACUUGCCCCCGGGAGAUUUUUUCCUCGAGCAA [U57G C77U]
CUCUCGGUAGCCAAGUUGGUUUAAGGCGCAAGACUUUAAUUUAUCACUACGAAAUCGUGAGAUCGGGCGUUCGACUCGCUCCCGCGAGAUUUUUUCCUCGAGCAA [U57G C80U G85C]
CUCUCGGUAGCCAAGUUGGUUUAAGGCGCAAGACUUUAAUUUAUCACUACGAAAUCGUGAAAUCGGGCAUUCGACUCGCGCCCGGGAGAUUUUUUCCUCGAGCAA [U57G G61A G69A C80G]
